# Results published in the supplement of paper PMC12217912.
# The other results are listed elsewhere or left out. The full chains were built here from the parent and the listed change. Values near 0.05 are background.
# B1: TEV protease; numbered along this chain (parent)
# chain: MGESLFKGPRDYNPISSSICHLTNESDGHTTSLYGIGFGPFIITNKHLFRRNNGTLVVQSLHGVFKVKDTTTLQQHLVDGRDMIIIRMPKDFPPFPQKLKFREPQREERICLVTTNFQTKSMSSMVSDTSCTFPSGDGIFWKHWIQTKDGQCGSPLVSTRDGFIVGIHSASNFTNTNNYFTSVPKNFMELLTNQEAQQWVSGWRLNADSVLWGGHKVFMVKPEEPFQPVKEATQL
# Variants of: B1
# Test: raw area under fraction-flipped curve 0-4 h after induction (AUC4h, not background-subtracted), DNA-recorder readout of cleavage of the substrate (dimensionless); higher = more cleavage of the substrate by the protease variant
# Settings: temperature: 34 °C; time window: 0-4 h after rhamnose induction
# Protocol: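 In vivo DNA recorder in E. coli TOP10(DE3) ΔrhaA at 34 °C. Each TEVp single-site mutant (parent TEVp 0) is paired with a single-site variant of the 7-mer TEVs (canonical ENLYFQ|S). The substrate sits between flexible linkers in a Bxb1-sfGFP-TEVs-SsrA fusion, so cleavage stabilises Bxb1 and speeds flipping of a recombination array, read by NGS. The value is the raw area under the fraction-flipped curve over 0-4 h after rhamnose induction (AUC4h), with ≥20 reads per time point. It is not background-subtracted; inactive controls average about 0.047.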
# 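Note: Bxb1 expression induced with 0.2% (w/v) L-rhamnose at OD600 near 0.5, cultures sampled hourly, flipped fraction per protease–substrate barcode pair counted by paired-end Illumina sequencing.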
Variant,area with substrate CNLYFQS,area with substrate HNLYFQS,area with substrate LNLYFQS,area with substrate PNLYFQS,area with substrate SNLYFQS,area with substrate TNLYFQS,area with substrate WNLYFQS,area with substrate YNLYFQS,area with substrate FNLYFQS,area with substrate GNLYFQS,area with substrate INLYFQS,area with substrate KNLYFQS,area with substrate MNLYFQS,area with substrate QNLYFQS,area with substrate VNLYFQS,area with substrate NNLYFQS,area with substrate RNLYFQS,area with substrate DNLYFQS
I42D,0.044,0.0489,0.0298,0.0451,0.0416,0.0284,0.0397,0.0668,–,–,–,–,–,–,–,–,–,–
I42G,0.0302,0.0475,0.0427,0.0515,0.0499,0.0463,0.0375,–,0.0428,0.0441,0.0373,0.0355,0.0453,0.0393,0.043,–,–,–
I42W,0.0581,0.0485,0.0509,0.0695,0.0529,0.0536,0.0453,0.0474,0.0546,0.0548,0.0412,0.0504,0.0573,0.0469,0.0761,–,–,–
I43V,0.0709,0.0623,0.0605,–,–,0.0826,0.0516,0.0802,0.0651,–,0.0539,–,0.054,–,–,0.0552,–,–
T44L,0.055,0.0461,0.0558,0.0505,0.0593,0.0492,0.0323,0.0568,0.0619,0.0591,0.0465,0.0629,0.0434,–,0.0578,0.0545,–,–
T44Q,0.0534,0.0378,0.0502,0.0457,0.041,0.0477,0.0515,0.062,–,0.0358,0.0379,0.004,–,0.0444,0.0378,0.0184,–,–
N45D,0.0454,0.0611,0.0592,0.0617,0.0589,0.0574,0.0534,0.0468,–,0.0553,0.0534,0.0658,0.0471,–,0.0491,0.0534,–,–
N45Q,0.0536,0.0598,0.058,0.0638,0.0588,0.0576,–,–,0.0623,0.0508,0.0561,0.0852,0.0379,–,0.0536,0.0528,–,–
N45S,0.0686,0.0537,0.0554,0.0693,0.051,–,0.0548,0.0575,0.061,–,0.0555,0.0666,0.0573,–,–,0.0772,–,–
K46E,0.0503,0.0674,0.0621,0.0568,0.0535,0.0547,0.052,0.0487,0.0715,0.0455,0.0606,0.0662,0.049,–,0.0679,0.0614,–,–
K46F,0.0593,0.0626,0.0708,0.0474,0.101,0.0466,0.0538,0.0554,–,–,–,0.0673,0.055,–,–,–,–,–
K46R,0.0572,0.0579,0.0702,0.0606,0.0772,0.0828,0.0565,0.0482,–,0.0719,0.0717,0.0631,0.0755,–,–,0.0468,–,–
H47A,0.0519,0.0672,0.0719,0.0325,0.0596,–,0.0522,–,–,0.0396,0.0661,–,0.0806,–,–,0.0564,–,–
H47R,0.0709,0.0611,–,0.0612,0.0592,0.0509,0.0503,0.0662,0.0742,–,–,–,0.055,–,–,–,0.0371,–
L48H,0.0636,0.0642,0.0695,0.0633,0.0543,–,–,0.0574,–,–,–,–,0.0666,0.0466,0.0714,0.0654,–,–
F49H,0.0589,0.0436,–,0.0494,0.0451,0.0603,0.0645,0.0469,0.0566,0.0563,0.0509,0.0506,0.0404,–,–,0.0507,–,–
R50L,0.0747,0.0571,–,0.0587,0.0482,0.0601,0.0827,0.0586,0.0499,0.0578,–,0.054,–,–,0.056,–,0.0695,–
R51C,0.0581,0.065,0.0607,0.0598,0.0682,0.0632,0.0625,0.0681,0.0682,0.0689,–,0.0958,0.0615,–,–,0.0647,–,–
R51M,0.0673,0.0631,0.0645,0.0496,–,0.0659,0.053,0.0632,0.0719,–,0.0675,0.1,0.0737,–,–,0.076,–,–
N52F,0.066,0.051,0.0608,0.0585,0.0582,0.0735,0.0677,0.0582,0.0577,–,–,0.0634,0.0277,0.0462,0.0585,0.0552,–,–
N52I,0.0656,0.0496,0.0608,–,0.0384,–,0.0631,–,–,–,–,–,–,–,–,–,–,0.0733
N52M,0.0468,–,–,0.0607,–,0.067,0.0608,0.0544,–,–,0.0643,–,0.0654,–,–,–,–,–
N52S,0.0651,0.0376,0.0627,0.0599,0.0578,0.0696,0.0613,0.0521,–,–,0.0603,0.0603,0.0782,0.0603,0.0485,–,–,–
N52T,0.0571,0.0642,0.0596,–,–,0.0538,0.0976,0.0573,–,0.0825,0.0577,–,–,–,0.0511,–,0.0586,–
N52Y,0.0559,0.0503,0.0565,0.0639,0.0656,0.0598,0.062,0.0653,–,–,0.0582,0.0586,0.069,–,0.0639,–,0.07,–
N53A,0.0687,0.0584,0.0591,0.0568,–,0.0591,0.0629,0.0801,0.0436,0.049,0.0575,–,0.064,–,0.0763,–,0.0563,–
N53G,0.0628,0.0615,0.0653,0.0604,–,0.0675,0.0585,0.0535,0.0535,0.0835,0.0688,0.0692,–,–,0.0412,–,0.0576,–
T55E,0.0741,0.0656,0.057,0.0483,0.0656,0.0604,0.0543,0.0569,–,–,0.0623,0.0675,–,0.0701,0.0632,–,–,–
T55I,0.0573,0.064,0.0771,0.0752,0.0679,0.0663,–,0.0504,–,–,0.056,–,0.0684,–,–,0.0676,–,–
